Experimental findings from PMC4336329 (PLoS ONE, 2015) are described below.

The whole screen tested about 310,000 compounds, of which about 14,000 (4.5%) showed an effect of 50% or more. The effect is printed as a negative number. This is one part of the list.
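Note: peak tail current of the secondary pulse compared with the same well before compound.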

For this assay, the target named is human ether-à-go-go-related gene (hERG) potassium channel (human, UniProt Q12809). The assay can be described thus: primary screen, population patch clamp on CHO cells stably expressing hERG.
Sequence of human ether-à-go-go-related gene (hERG) potassium channel (Q12809 whole entry, looked up): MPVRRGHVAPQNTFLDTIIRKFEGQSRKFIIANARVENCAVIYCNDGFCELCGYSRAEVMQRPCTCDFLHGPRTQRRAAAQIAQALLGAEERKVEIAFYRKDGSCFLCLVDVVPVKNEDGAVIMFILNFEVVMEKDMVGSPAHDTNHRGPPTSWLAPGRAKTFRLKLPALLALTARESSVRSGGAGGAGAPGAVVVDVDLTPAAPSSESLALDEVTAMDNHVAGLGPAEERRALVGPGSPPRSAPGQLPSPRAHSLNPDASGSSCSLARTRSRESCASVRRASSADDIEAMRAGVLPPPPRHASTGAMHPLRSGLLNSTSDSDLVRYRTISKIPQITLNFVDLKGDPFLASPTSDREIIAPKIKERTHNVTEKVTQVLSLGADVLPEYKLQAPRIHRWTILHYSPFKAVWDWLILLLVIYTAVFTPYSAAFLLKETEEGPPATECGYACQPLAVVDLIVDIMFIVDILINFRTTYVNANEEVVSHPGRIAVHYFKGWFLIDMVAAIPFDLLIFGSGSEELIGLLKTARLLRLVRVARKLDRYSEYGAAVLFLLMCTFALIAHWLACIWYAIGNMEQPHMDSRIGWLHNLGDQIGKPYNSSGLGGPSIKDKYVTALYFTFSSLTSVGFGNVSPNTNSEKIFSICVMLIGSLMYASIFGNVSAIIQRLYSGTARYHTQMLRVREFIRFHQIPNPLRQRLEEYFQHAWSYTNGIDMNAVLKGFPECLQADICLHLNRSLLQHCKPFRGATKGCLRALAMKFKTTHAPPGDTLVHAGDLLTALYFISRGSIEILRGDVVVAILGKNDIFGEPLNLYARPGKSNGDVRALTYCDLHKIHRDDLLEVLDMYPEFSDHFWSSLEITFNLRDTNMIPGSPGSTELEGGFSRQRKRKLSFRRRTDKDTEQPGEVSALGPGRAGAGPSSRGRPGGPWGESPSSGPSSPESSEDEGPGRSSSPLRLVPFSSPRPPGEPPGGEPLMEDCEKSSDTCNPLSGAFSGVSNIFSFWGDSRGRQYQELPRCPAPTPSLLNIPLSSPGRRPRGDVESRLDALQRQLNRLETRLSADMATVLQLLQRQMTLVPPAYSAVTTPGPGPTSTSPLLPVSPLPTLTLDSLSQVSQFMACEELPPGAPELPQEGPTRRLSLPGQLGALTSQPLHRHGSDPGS
With `CCCn1c(=O)n(C)c(=O)c2c(SCC(=O)NC34CC5CC(CC(C5)C3)C4)nc(CC(C)C)nc21`, the “hERG current change (%, negative = inhibition) at 10uM” value was 8.5%.

On to `OCCC1CN(Cc2cccn2-c2ncccn2)CCN1Cc1ccc(F)cc1` (stereo not shown), for which the “hERG current change (%, negative = inhibition) at 10uM” value is given as -73.7%.

For the molecule `COC(=O)c1cc(-c2ccccc2)sc1NC(=O)CN1C(=O)c2ccccc2C1=O`, the “hERG current change (%, negative = inhibition) at 10uM” value is 15.9%.

Turning to `C=CCNC(=O)NC(=O)COC(=O)c1nc2nccc(C)n2n1`, the “hERG current change (%, negative = inhibition) at 10uM” value is listed as 17.8%.

Take `Cc1cccc(N2CCN(C(c3ccc(N(C)C)cc3)c3nnnn3C(C)(C)C)CC2)c1C` (stereo not shown): the “hERG current change (%, negative = inhibition) at 10uM” value is listed as -10.8%.

For the molecule `Cc1ccc(NC(=O)CSc2nnc(NC(=O)c3ccc(S(=O)(=O)N4CCOCC4)cc3)s2)cc1`, the “hERG current change (%, negative = inhibition) at 10uM” value was 13%.

`CCOc1ccccc1NC(=S)N1CCN(c2nc(-c3cccc(OC)c3)cs2)CC1`: the “hERG current change (%, negative = inhibition) at 10uM” value is recorded as 32%.

In the case of `O=C(C1CCN(c2ncnc3c2nc2n3CCCCC2)CC1)N1CCN(c2cccc(Cl)c2)CC1`, the “hERG current change (%, negative = inhibition) at 10uM” value is reported as -36.7%.

`Cn1cc(/C(Cc2ccccc2)=N\O)c2ccccc21`: the “hERG current change (%, negative = inhibition) at 10uM” value is 4.78%.

Turning to `COc1ccc2c(CC(=O)Nc3cccc(S(=O)(=O)N4CCOCC4)c3)coc2c1`, the “hERG current change (%, negative = inhibition) at 10uM” value is on record as -32.4%.

In the case of `Cc1nc(C(=O)NNC(=O)c2ccccc2)c(C(F)(F)F)o1`, the “hERG current change (%, negative = inhibition) at 10uM” value is 8.9%.

On to `C(=N\Nc1nncc2ccccc12)/c1ccccc1`, for which the “hERG current change (%, negative = inhibition) at 10uM” value was 1.52%.

Consider `COc1ccc(C(CNC(=O)C(=O)NC2CCCC2)N2CCN(C)CC2)cc1` (stereo not shown), for which the “hERG current change (%, negative = inhibition) at 10uM” value is -45.9%.

For `COc1ccc(Cl)cc1NS(=O)(=O)c1cccc(C(=O)NCC(c2ccco2)N2CCCC2)c1` (stereo not shown), the “hERG current change (%, negative = inhibition) at 10uM” value is -34%.

For the molecule `COc1ccccc1-n1cnnc1SCC(=O)Nc1cccc(S(N)(=O)=O)c1`, the “hERG current change (%, negative = inhibition) at 10uM” value is recorded as 15.9%.

As to `COc1ccc(-c2c(C)c3cc(O)ccc3oc2=O)cc1`, the “hERG current change (%, negative = inhibition) at 10uM” value is recorded as 6.67%.

As for `Cc1ccc2c(Cl)cc(Cl)c(OCC(=O)Nc3cccc(S(=O)(=O)N(C)C)c3)c2n1`, the “hERG current change (%, negative = inhibition) at 10uM” value is recorded as -0.285%.

Regarding `CC(C)(C)c1ccc(C(=O)C2CCCN(C(=O)CCn3cncn3)C2)cc1` (stereo not shown), the “hERG current change (%, negative = inhibition) at 10uM” value was -28.6%.

For `COc1ccccc1C(=O)C1CCCN(C(=O)CSc2ccccn2)C1` (stereo not shown), the “hERG current change (%, negative = inhibition) at 10uM” value is reported as -23%.

On to `COc1ccnc(Oc2ccccc2)c1C(N)=O`, for which the “hERG current change (%, negative = inhibition) at 10uM” value was 20.2%.

With `COC(=O)c1cc(C(=O)c2ccc(C(C)(C)C)cc2)c[nH]1`, the “hERG current change (%, negative = inhibition) at 10uM” value was found to be 0.533%.

Consider `O=C(Nc1ccccc1O)c1cccc(S(=O)(=O)Nc2ccccc2O)c1`, for which the “hERG current change (%, negative = inhibition) at 10uM” value was found to be 8.81%.

Turning to `CCN(CC)S(=O)(=O)c1cccc(C(=O)N/N=C2\CCCC(=O)C2)c1`, the “hERG current change (%, negative = inhibition) at 10uM” value is -1.63%.

On to `Oc1c(CN2CCN(c3ccccc3)CC2)cc(Br)c2cccnc12`, for which the “hERG current change (%, negative = inhibition) at 10uM” value worked out at 7.1%.

With `Cc1cc(C)cc(N2C(=O)NC(=O)/C(=C\c3cc(C)n(C)c3C)C2=O)c1`, the “hERG current change (%, negative = inhibition) at 10uM” value was found to be 6.86%.

Turning to `Cc1cc(C)c(S(=O)(=O)N2CCN(C)CC2)c(C)c1`, the “hERG current change (%, negative = inhibition) at 10uM” value was 10.5%.

Turning to `CCOC(=O)C1=C(C)NC(=O)NC1c1ccc(OC(=O)c2ccco2)cc1` (stereo not shown), the “hERG current change (%, negative = inhibition) at 10uM” value is listed as -2.08%.

For `COc1ccccc1NC(=O)C(=O)N/N=C(\C)CC(=O)Nc1ccc(OCc2ccccc2)cc1`, the “hERG current change (%, negative = inhibition) at 10uM” value is listed as 3.64%.

Take `CCN(CCNC(=O)Cn1c(=O)sc2ccccc21)c1ccccc1`: the “hERG current change (%, negative = inhibition) at 10uM” value is -15.5%.

`Cc1nn(Cc2c(F)c(F)c(F)c(F)c2F)c(C)c1NC(=O)c1nn(C)cc1Br`: the “hERG current change (%, negative = inhibition) at 10uM” value worked out at 11.1%.

With `O=C(c1cccc(Br)c1)N1CCN(S(=O)(=O)N2CCOCC2)CC1`, the “hERG current change (%, negative = inhibition) at 10uM” value is on record as -40.6%.

Take `Cc1n[nH]c(C)c1C(=O)CC1(O)C(=O)N(CCc2ccccc2)c2ccc(Br)cc21` (stereo not shown): the “hERG current change (%, negative = inhibition) at 10uM” value was found to be 12.8%.

With `O=C(NCc1ccc2c(c1)OCO2)c1cccc(N2CCCC2=O)c1`, the “hERG current change (%, negative = inhibition) at 10uM” value is listed as -0.598%.

In the case of `Cc1ccc(-c2nn3c(C)nnc3c3ccccc23)cc1S(=O)(=O)NC(C)c1ccccc1` (stereo not shown), the “hERG current change (%, negative = inhibition) at 10uM” value is -50.8%.

On to `O=C(COc1cccnc1[N+](=O)[O-])Nc1ccc(S(=O)(=O)N2CCOCC2)cc1`, for which the “hERG current change (%, negative = inhibition) at 10uM” value is listed as 16.2%.

As to `O=C(Nc1ccccc1)/C(=C/c1ccccc1)NC(=O)c1ccco1`, the “hERG current change (%, negative = inhibition) at 10uM” value is recorded as 13.4%.

Take `O=C(O)CCC(=O)Nc1sc2c(c1C(=O)NCc1ccccc1)CCCC2`: the “hERG current change (%, negative = inhibition) at 10uM” value amounted to 2.8%.

For `CC1CCN(CCCOc2ccc(Cl)cc2Br)CC1`, the “hERG current change (%, negative = inhibition) at 10uM” value was -76.3%.

Turning to `COc1cccc(C(=O)NC23CC4CC(CC(C4)C2)C3)c1`, the “hERG current change (%, negative = inhibition) at 10uM” value is recorded as 2.17%.

In the case of `NC(=O)C(=O)NCCCN1CCOCC1`, the “hERG current change (%, negative = inhibition) at 10uM” value is on record as 29.8%.

Take `CCOC(=O)C1(Cc2cccc(Cl)c2)CCCN(C(=O)c2cc(C)[nH]n2)C1` (stereo not shown): the “hERG current change (%, negative = inhibition) at 10uM” value is -25.2%.

With `COc1cccc2[nH]c3c(N4CCCCC4)ncnc3c12`, the “hERG current change (%, negative = inhibition) at 10uM” value is given as -14.3%.

As to `CCC(CO)Oc1cc(NCc2ccccc2Cl)c2ncn(C(C)C)c2c1` (stereo not shown), the “hERG current change (%, negative = inhibition) at 10uM” value is given as -14.8%.
